Reference: PubChem BioAssay AID488969 (Vanderbilt High Throughput Screening Facility, 2010)
Over roughly 110,000 compounds, “z-score” has its median near -0.1; the highest 2% begin near 2. The list shows a part of the results.

Target: Metabotropic glutamate receptor 8 (Rattus norvegicus) (UniProt P70579)
Test: rat mGluR8 modulators via GIRK flux, primary screen, cell-based, thallium flux, HTS (AID 488969)
Details: HEK293 rat mGluR8, GIRK (G protein-gated inwardly rectifying potassium channel) thallium flux, FluoZin2; at 10 µM; stronger effect = higher value; submaximal glutamate (EC20) added with thallium

Chain of UniProt P70579 (P70579 whole entry, looked up): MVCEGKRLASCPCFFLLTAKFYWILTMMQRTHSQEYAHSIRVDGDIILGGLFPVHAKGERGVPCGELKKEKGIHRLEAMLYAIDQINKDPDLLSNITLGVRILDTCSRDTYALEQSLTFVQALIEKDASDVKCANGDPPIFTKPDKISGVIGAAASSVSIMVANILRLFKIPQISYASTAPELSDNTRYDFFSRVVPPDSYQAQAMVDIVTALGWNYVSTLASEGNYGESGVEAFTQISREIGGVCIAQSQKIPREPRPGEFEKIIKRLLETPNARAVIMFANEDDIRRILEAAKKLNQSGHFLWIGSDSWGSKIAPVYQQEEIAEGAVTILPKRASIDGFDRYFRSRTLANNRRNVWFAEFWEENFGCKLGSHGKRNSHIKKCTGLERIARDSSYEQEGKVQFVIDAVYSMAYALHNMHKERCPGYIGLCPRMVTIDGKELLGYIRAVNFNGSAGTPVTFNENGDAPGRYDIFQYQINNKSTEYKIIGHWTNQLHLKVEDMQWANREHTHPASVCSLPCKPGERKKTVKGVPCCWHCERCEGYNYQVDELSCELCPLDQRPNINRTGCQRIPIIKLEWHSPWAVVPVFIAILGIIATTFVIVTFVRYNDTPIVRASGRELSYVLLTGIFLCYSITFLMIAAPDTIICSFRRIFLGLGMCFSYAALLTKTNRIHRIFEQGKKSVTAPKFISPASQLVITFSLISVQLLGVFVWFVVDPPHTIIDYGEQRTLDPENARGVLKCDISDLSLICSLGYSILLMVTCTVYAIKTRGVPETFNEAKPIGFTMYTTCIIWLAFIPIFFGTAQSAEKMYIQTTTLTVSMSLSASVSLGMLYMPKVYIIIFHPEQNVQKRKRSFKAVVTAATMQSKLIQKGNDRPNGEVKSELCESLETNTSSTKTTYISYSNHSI

| Compound | z-score |
| --- | --- |
| CCOC(=S)SCC(=O)Nc1nc(-c2ccccc2)cs1 | 0.0871 |
| CCOC(=O)C1CCN(C(=O)N2CCOCC2)CC1 | -0.296 |
| COc1ccc(-c2nc(C#N)c(NCc3ccc(F)cc3)o2)cc1OC | -1.26 |
| COc1ccc([N+](=O)[O-])cc1NC(=O)CSc1nccc(C)n1 | -0.037 |
| COc1ccc(C)cc1-n1nnnc1SCC(=O)c1ccc2c(c1)OCCO2 | 0.142 |
| O=C(/C(=N/N=C/c1ccc(O)c(O)c1O)c1ccccc1)c1ccccc1 | -0.216 |
| CN1CN(C)c2cccc3cccc1c23 | -0.472 |
| COc1cc(CN2CCC(C(=O)N3CCCC(C)C3)CC2)cc(Br)c1O (stereo not drawn) | 0.673 |
| Cc1ccc(/C=C/c2nnc(-c3cccc(C)c3)o2)cc1 | -0.0561 |
| CC(=O)c1nn(-c2cccc(Cl)c2)cc1C(=O)c1ccco1 | 0.0585 |
| COc1ccc(C(=O)C(CN2CCOCC2)c2ccccc2)cc1 (stereo not drawn) | 0.845 |
| CCc1cccc(CC)c1NC(=O)Cn1c(-c2ccccc2Cl)nc2ccccc21 | -0.297 |
| Cc1ccc(NC(=O)c2ccc(S(=O)(=O)C(F)F)cc2)c(C)c1 | -0.657 |
| COc1cc(NC2=CC(=O)CC(C)(C)C2)cc(OC)c1OC | 0.32 |
| CC1(C)CC(c2nc(-c3ccc(Br)cc3)cs2)CCS1 (stereo not drawn) | 2.26 |
| COc1ccc2nc(SCC(=O)/C(C#N)=C(\C)N)[nH]c2c1 | -0.0634 |
| CCN(CC(=O)NC1CCS(=O)(=O)C1)C(=O)C(c1ccccc1)c1ccccc1 (stereo not drawn) | -0.476 |
| O=C(CCCN1C(=O)/C(=C/c2cccs2)SC1=S)NNC(=O)c1ccc(F)cc1 | 0.178 |
| Cc1ccc(OCc2nc(C#N)c(N3CCCC3)o2)cc1 | -0.342 |
| CC(=O)Nc1ccc(S(=O)(=O)N2CCN(CC(=O)NC3CCCC3)CC2)cc1 | 0.0496 |
| Cc1cc2nncn2c2ccccc12 | -0.397 |
| COc1ccc(CC(=O)NNC(=O)c2cnccn2)cc1 | -0.09 |
| C=CCNc1nc2c(c(=O)[nH]c(=O)n2C)n1CCCCC | -0.209 |

| Compound | z-score |
| --- | --- |
| COc1ccc(CNc2ccc3c(c2)CCC3)cc1OC | -0.148 |
| O=C(/C=C/c1ccco1)NCC1CCCO1 (stereo not drawn) | -0.494 |
| CCc1cccc(C)c1NC(=O)C1C2CCC(O2)C1C(=O)O (stereo not drawn) | -0.333 |
| COC(=O)c1ccc(NC(=O)c2ccccc2N(C)S(C)(=O)=O)cc1 | -0.176 |
| c1ccc(COc2ccc(OCCCCN3CCCC3)cc2)cc1 | 0.565 |
| O=C(O)CCC(=O)Nc1nc2ccccc2s1 | 0.0645 |
| CCOc1cc(S(=O)(=O)NCc2ccccc2)c(OCC)cc1-n1cnnn1 | 0.0994 |
| CCN1CCN(c2nc(-c3ccccc3)nc3ccccc23)CC1 | 0.12 |
| COc1ccccc1CNC(=O)CCNS(=O)(=O)c1cccc2nsnc12 | -0.0935 |
| CC(C)C(CCN1C(=O)c2ccccc2C1=O)c1ccco1 (stereo not drawn) | -0.0448 |
| N#Cc1c(SCC(=O)Nc2ccccc2)nsc1SCC(=O)Nc1ccccc1 | -0.42 |
| Cc1oc(-c2cccc(Cl)c2)nc1CN1CCC(C(=O)NCCCN2CCCC2=O)CC1 | -0.113 |
| C=CCSc1ncccc1C(=O)O | 0.437 |
| CCOC(=O)c1cc(C)n(CCc2ccccc2)c1C | -0.341 |
| Cc1c(NC(=O)C(C)OC(=O)c2cccs2)c(=O)n(-c2ccccc2)n1C (stereo not drawn) | 0.0558 |
| CCc1ccccc1N(CC(=O)N/N=C/c1ccc(OC(=O)OC)c(OC)c1)S(C)(=O)=O | -0.214 |
| Nn1c(SCC(=O)NCc2ccccc2)nncc1=O | 0.234 |
| COc1ccc(C2C(C#N)=C(N)Oc3c2c(C)nn3-c2ccccc2)cc1Cn1nc(C)c([N+](=O)[O-])c1C (stereo not drawn) | -1.18 |
| CCCCCN(C(=O)NC(=O)Nc1ccccc1C)S(=O)(=O)c1ccccc1 | -0.518 |
| O=C(Oc1ccccc1)c1ccc(-n2cnnn2)cc1 | 0.5 |
| Cc1ccc(NC(=O)C(C)OC(=O)CCNS(=O)(=O)c2ccc(C)cc2)cc1 (stereo not drawn) | 0.0934 |
| CC(=O)NC(=O)COC(=O)/C=C/c1c(C)nn(Cc2c(Cl)cccc2Cl)c1Cl | -0.49 |
| O=C(CN(Cc1ccco1)C(=O)CNS(=O)(=O)c1ccc(F)cc1)NCc1ccc(F)cc1 | 0.167 |

| Compound | z-score |
| --- | --- |
| Cc1cc(C)c2c(-n3cccc3)c(C(=O)O)sc2n1 | -0.785 |
| O=C(c1c[nH]c2ccc(F)cc2c1=O)N1CCCCCC1 | 0.464 |
| C/C(=N\Nc1ccc(Cl)c(Cl)c1)c1ccc(-n2ccnc2)cc1 | -0.187 |
| CCOC(=O)c1ccc(NC(=S)NNC(=O)COC)cc1 | -0.275 |
| COc1cccc(CN(Cc2ccco2)S(=O)(=O)c2ccc(S(=O)(=O)NCc3ccccc3)cc2)c1OC | 0.483 |
| O=C(CN1C(=O)C2C3C=CC(C3)C2C1=O)NCC1COc2ccccc2O1 (stereo not drawn) | -0.696 |
| COc1cccc(N2C(=O)c3ccncc3C2=O)c1 | -0.133 |
| COc1ccc(CNC(=O)C(c2ccco2)N(Cc2ccccc2)C(=O)Cc2cccs2)cc1 (stereo not drawn) | -0.316 |
| COc1ccccc1NCC(=O)N/N=C/c1cccnc1 | -0.0577 |
| COc1ccc(/C=N/Nc2ncnc3sc4c(c23)CCCC4)cc1OC | 0.0529 |
| COc1cccc2c(=O)n(CC(=O)NC3CCCCC3)ccc12 | -0.321 |
| O=C(CN1C(=O)c2cccc3cccc1c23)NCc1ccc2c(c1)OCO2 | -0.178 |
| COc1ccccc1-n1c(-c2cn(C)nc2C)n[nH]c1=S | -0.126 |
| Cc1ccc(O)c(C(=O)c2cc(C(=O)NCCc3ccccc3)c(=O)n(CCc3ccccc3)c2)c1 | -0.117 |
| OC(CNCc1ccc(F)cc1)(c1ccccc1)c1ccc(F)cc1 (stereo not drawn) | -0.174 |
| COc1ccc(C(=O)CC2OC(=O)c3ccccc32)cc1OC (stereo not drawn) | -0.48 |
| Nc1c(C(=O)NCc2ccco2)nnn1CC(=O)Nc1ccccc1 | 0.358 |
| CCc1n[nH]c(=O)n1Cn1c(CC)n[nH]c1=O | 0.876 |
| C#CCSc1nnc(CSc2nc3ccccc3s2)n1-c1ccccc1 | -0.395 |
| Cc1ccccc1OCC(=O)NN1CCN(C)CC1 | 0.122 |
| COc1ccc2c(c1)C1(Nc3ccccc3C(=O)N1c1ccccc1)C(=O)N2 (stereo not drawn) | 0.642 |
| Cc1ccsc1/C=C1\SC(N)=NC1=O | 0.0887 |
| COc1ccc(/C=N/NC(=S)Nc2ccccc2)cc1COc1ccc(F)cc1F | -0.047 |

| Compound | z-score |
| --- | --- |
| Cc1cc(N2CCCC2=O)cc(C)c1S(=O)(=O)NCCOc1ccccc1 | 0.41 |
| CCS(=O)(=O)c1ccc2oc(SCC(=O)NC(C)C3CC4CCC3C4)nc2c1 (stereo not drawn) | 0.154 |
| O=c1[nH]c2ccccc2nc1NCCN1CCOCC1 | 0.25 |
| O=C(NCC1CCCCC1)C1CCN(C(=O)NC2CCCCC2)CC1 | -0.403 |
| CCCOC(=S)Nc1ccccc1 | 0.258 |
| COc1ccc(C(=O)NCC(=O)OCC(=O)N2CCCc3ccccc32)cc1 | -0.509 |
| Cc1csc(NC(=O)CSc2nnc(CCNC(=O)c3ccc(Cl)c(Cl)c3)n2C)n1 | -0.837 |
| CCOC(=O)C1=C(C)N(C)C(=S)NC1c1ccc(Cl)cc1 (stereo not drawn) | -0.242 |
| Oc1c(Cl)cccc1C=Nc1cc(C(F)(F)F)ccc1N1CCCC1 | -0.231 |
| CSc1ccc(Cl)c(C(=O)OCC(=O)NCc2ccco2)c1 | -0.588 |
| Cc1ccccc1C(=O)Nc1cccc(NC(=O)Cn2cnc3c(=O)n(C)c(=O)n(C)c32)c1 | -2.15 |
| Cc1cccc2nc(CNc3ccc(F)cc3)cn12 | -0.69 |
| CN1C(=S)SC(C)(C)C1(C)NO (stereo not drawn) | 0.0261 |
| O=C(NCc1ccco1)c1cc2c(s1)CSC2 | 0.353 |
| CC(=O)Nc1ccc(/C=N/NC(=O)c2cc3ccccc3nc2C)cc1 | -1.24 |
| CCC(=O)Nc1ccc(NC(=O)Cc2ccccc2)cn1 | -0.14 |
| Cc1cc2oc(C(=O)Nc3ccc(S(=O)(=O)N4CCCC(C)C4)cc3)cc(=O)c2cc1Cl (stereo not drawn) | -0.311 |
| CCC(=O)N(CCC(Cc1ccccc1)c1ccc2c(c1)OCO2)Cc1ccccc1F (stereo not drawn) | 0.151 |
| CCC(Sc1nc2c(cnn2-c2ccccc2)c(=O)[nH]1)C(=O)OC (stereo not drawn) | -0.468 |
| CN(C)S(=O)(=O)c1ccc(C(=O)Nc2ccc(CCC(=O)N3CCCC3)cc2)cc1 | -0.523 |
| CCN(CC)C(=O)CSc1nc2sc(C)c(C)c2c(=O)[nH]1 | 0.178 |
| Oc1ccc(/C=N\Nc2cc(N3CCOCC3)nc(N3CCOCC3)n2)c(O)c1 | -0.52 |
| CCOC(=O)c1cc2c(c(CSc3nc4ccccc4c(=O)n3Cc3ccco3)c1)OCOC2 | -0.113 |

| Compound | z-score |
| --- | --- |
| CCOC(=O)Cc1csc(NC(=O)CN(C)S(=O)(=O)c2cccc3cccnc23)n1 | -0.861 |
| COC(=O)C(C)(C)NC(=O)c1cccs1 | 0.202 |
| Cc1ccc(S(=O)(=O)N/N=C\C=C\c2ccccc2)cc1 | 0.0901 |
| CSCC[C@H](NC(=O)c1cccc([N+](=O)[O-])c1C)c1nc2ccccc2[nH]1 | -0.189 |
| O=C1c2ccccc2C(Nc2ccc(Cl)cn2)N1Cc1ccccc1 (stereo not drawn) | -0.981 |
| COc1cccc(NC(=O)CSc2nnc(C)s2)c1 | 0.406 |
| CCC1CCCCN1CCNC(=O)C1CCN(S(=O)(=O)c2c(C)noc2C)CC1 (stereo not drawn) | 0.663 |
| Cc1ccc(C(=O)C[n+]2cc(-c3ccc(C)cc3)n3c2CCCCC3)cc1 | -0.00401 |
| CCc1nnc(SCc2cn3c(C)cc(C)nc3n2)n1N | -0.0749 |
| COc1cccc(/C=N/NC(N)=S)c1OS(=O)(=O)c1ccccc1 | -0.0118 |
| CCOC(=O)C1=C(C)C(c2ccccc2OC)NC(=O)N1 (stereo not drawn) | 0.0111 |
| CCOC(=O)NCN1C(=O)C2C3C=CC(C3)C2C1=O (stereo not drawn) | 0.216 |
| O=C1C2(c3ccccc3)CN(CCCO)CC1(c1ccccc1)CN(CCCO)C2 | -0.0275 |
| COc1ccc(C2CC(=O)C3=C(C2)NC(C)=C(C(=O)Nc2ccccc2C)C3c2coc3ccc(C)cc3c2=O)cc1OC (stereo not drawn) | -0.17 |
| Cc1ccnc(NC(=O)CCc2c(C)nc3ncnn3c2C)c1 | 0.246 |
| O=S1(=O)N=C(Oc2cccc3ccccc23)c2ccccc21 | 0.0873 |
| COC(=O)CCC(=O)c1oc2ccccc2c1N | -0.127 |
| O=C(CCn1c(=O)oc2ccccc21)N1CCN(c2ccccc2Cl)CC1 | 0.839 |
| COc1cccc(CNS(=O)(=O)/C=C/c2ccc3c(c2)OCO3)c1 | -0.117 |
| COc1cc(NS(=O)(=O)c2ccc(N/C=C\C(=O)c3ccc(OC)c(OC)c3)cc2)nc(OC)n1 | -0.305 |
| S=C(NCc1cccs1)Nc1ccccc1Cl | -0.146 |
